{"source": "patent US20190248885A1", "about": "“Neuronal and Oligodendrocyte Survival Modulation” (The Board of Trustees of the Leland Stanford Junior …, priority 2016, published 2019)", "molecules": {"B1": {"name": "interleukin 1 alpha (protein, UniProt P01583 113-271, looked up)", "Interleukin-1 alpha": "SAPFSFLSNVKYNFMRIIKYEFILNDALNQSIIRANDQYLTAAALHNLDEAVKFDMGAYKSSKDDAKITVILRISKTQLYVTAQDEDQPVLLKEMPEIPKTITGSETNLLFFWETHGTKNYFTSVAHPNLFIATKQDYWVCLAGGPPSITDFQILENQA"}}, "key": {"astrocytes in the LGN": {"tested_on": "astrocytes in the LGN", "assay": "In vivo synapse engulfment assay", "parameters": "species or system mouse", "details": "compared to saline-treated control animals"}, "purified astrocytes": {"tested_on": "purified astrocytes", "assay": "Reactive astrocyte transcript induction in purified cultured astrocytes (microfluidic qPCR)", "details": "for induction of A1 reactive astrocyte transcripts/phenotype / A1 genes induced: purified astrocytes, serum-free culture; for induction of A1 reactive astrocyte transcripts/phenotype: microfluidic qPCR; for marker expression profile compared with in vivo A1 reactive astrocytes: in vitro treatment, FIG. 6; for A1 genes induced: single cytokine"}, "astrocytes": {"tested_on": "astrocytes", "assay": "Astrocyte reactivity after systemic LPS injection (microfluidic qPCR)", "type": "in vivo, mouse", "details": "for A1 reactive astrocyte response: systemic LPS injection"}, "[1]": {"tested_on": "retinal ganglion cells (RGCs)", "assay": "Survival/cell toxicity assay, RGCs", "type": "cell-based, rat", "details": "for prevention of A1 ACM-induced RGC death: RGCs treated with A1 ACM plus blocker; for toxicity to RGCs of ACM from astrocytes treated individually with the cytokine: viability at 24 h, not as great as full A1 ACM"}, "[2]": {"tested_on": "cells in purified cultures", "assay": "Direct cytokine toxicity in purified cultures", "type": "cell-based", "details": "data not shown"}, "RGCs": {"tested_on": "RGCs", "assay": "Optic nerve crush in mice", "type": "in vivo, mouse", "details": "PLX-3397 containing chow versus control chow"}}, "note": "Where a SMILES comes first, the peptide text is derived from it. The star is where a group is joined. Cbz = O=C(OCc1ccccc1)*; CH2F = FC*"}
{"molecule": "lipopolysaccharide [LPS]", "values": [{"measurement": "loss of synaptic engulfment ability", "setting": "astrocytes in the LGN", "value": "around 50%"}, {"measurement": "induction of A1 reactive astrocyte transcripts/phenotype", "setting": "purified astrocytes", "value": "they do not"}, {"measurement": "A1 reactivity of astrocytes in the LGN", "setting": "astrocytes; P3 mice, systemic LPS, 24 hours later", "value": "strongly polarized to an A1 reactive phenotype"}, {"measurement": "A1 reactive astrocyte response", "setting": "astrocytes; Csf1r−/− mice lacking microglia", "value": "failed to activate to an A1 phenotype"}, {"measurement": "A1 reactive astrocyte response", "setting": "astrocytes; wild type littermate controls", "value": "robust induction of an A1 reactive astrocyte response"}]}
{"molecule": "macrophage-activating lipopeptide-2 [Malp2, reference compound]", "values": [{"measurement": "induction of A1 reactive astrocyte transcripts/phenotype", "setting": "purified astrocytes", "value": "they do not"}]}
{"molecule": "CN1C(=O)C(Cc2c[nH]c3ccccc23)NC1=S", "note": "(stereo not drawn) [Necrostatin]", "values": [{"measurement": "prevention of A1 ACM-induced RGC death", "setting": "[1]", "value": "did not preserve RGC viability"}, {"measurement": "prevention of A1 ACM-induced RGC death", "setting": "[1]; listed as necrostatin", "value": "could not be prevented"}]}
{"molecule": "COC(=O)C[C@H](NC(=O)[C@H](C)NC(=O)[C@@H](NC(=O)OCc1ccccc1)C(C)C)C(=O)CF", "note": "[Z-VAD-FMK] (Cbz-Val-Ala-Asp(OMe)-CH2F)", "values": [{"measurement": "prevention of A1 ACM-induced RGC death", "setting": "[1]", "value": "able to protect"}]}
{"molecule": "NS(=O)(=O)c1cccc2c1c([N+](=O)[O-])cc1nc(O)c(O)nc12", "note": "[NBQX]", "values": [{"measurement": "prevention of A1 ACM-induced RGC death", "setting": "[1]", "value": "ineffective"}]}
{"molecule": "NC(CCCP(=O)(O)O)C(=O)O", "note": "[D-APS]", "values": [{"measurement": "prevention of A1 ACM-induced RGC death", "setting": "[1]", "value": "ineffective"}]}
{"molecule": "tumor necrosis factor alpha [TNFα]", "values": [{"measurement": "toxicity to RGCs of ACM from astrocytes treated individually with the cytokine", "setting": "[1]", "value": "toxic"}, {"measurement": "death of cells caused directly by the cytokines", "setting": "[2]", "value": "did not cause death of cells in purified cultures"}, {"measurement": "marker expression profile compared with in vivo A1 reactive astrocytes", "setting": "purified astrocytes", "value": "less characteristic"}, {"measurement": "A1 genes induced", "setting": "purified astrocytes", "value": "about 25%"}]}
{"molecule": "N[C@@H](Cn1ccc(=O)n(Cc2ccccc2C(=O)O)c1=O)C(=O)O", "note": "[UBP-296]", "values": [{"measurement": "prevention of A1 ACM-induced RGC death", "setting": "[1]", "value": "ineffective"}]}
{"molecule": "FC(F)(F)c1ccc(CNc2ccc(Cc3c[nH]c4ncc(Cl)cc34)cn2)cn1", "note": "[PLX-3397]", "values": [{"measurement": "number of RGCs in ONC mice", "setting": "RGCs", "value": "no significant difference"}]}
{"molecule": "B1", "values": [{"measurement": "toxicity to RGCs of ACM from astrocytes treated individually with the cytokine", "setting": "[1]", "value": "toxic"}, {"measurement": "death of cells caused directly by the cytokines", "setting": "[2]", "value": "did not cause death of cells in purified cultures"}, {"measurement": "marker expression profile compared with in vivo A1 reactive astrocytes", "setting": "purified astrocytes", "value": "less characteristic"}, {"measurement": "A1 genes induced", "setting": "purified astrocytes", "value": "about 70%"}]}
